Consider 31 molecules from PMC9911399, “Two distinct binding modes provide the RNA-binding protein RbFox with extraordinary sequence specificity”.

Changes are numbered by the printed parent chain; changes in the protein carry UniProt numbers. The list shows a part of the results.

Sequences and labels used below:
T1: RBFOX1 RRM RbFoxmut (Fox-RRM*) (Homo sapiens, UniProt Q9NWB1 109-208, R118D;E147R;N151S;E152T)
T1 sequence: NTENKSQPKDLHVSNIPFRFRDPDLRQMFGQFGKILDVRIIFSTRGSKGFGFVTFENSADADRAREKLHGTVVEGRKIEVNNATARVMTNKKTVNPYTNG

B1: UCAUACC (DNA:RNA)
RNA: GGGAGACCGGAAUUCAGAUUGUCCUCAUACCUUAAAUCCCGUCGUAGCCACCA
DNA 1: CAATCTGAATTCCGGTCTCCC
DNA 2: TGGTGGCTACGACGGGATT
B2: GCCGGCG (DNA:RNA)
RNA: B1 RNA with U25G, A27C, U28G, A29G, C31G
DNA 1: CAATCTGAATTCCGGTCTCCC
DNA 2: TGGTGGCTACGACGGGATT
B3: CGAUCAA (DNA:RNA)
RNA: B1 RNA with U25C, C26G, A29C, C30A, C31A
DNA 1: CAATCTGAATTCCGGTCTCCC
DNA 2: TGGTGGCTACGACGGGATT
B4: CUGCUCC (DNA:RNA)
RNA: B1 RNA with U25C, C26U, A27G, U28C, A29U
DNA 1: CAATCTGAATTCCGGTCTCCC
DNA 2: TGGTGGCTACGACGGGATT
B5: CAUCAUG (DNA:RNA)
RNA: B1 RNA with U25C, C26A, A27U, U28C, C30U, C31G
DNA 1: CAATCTGAATTCCGGTCTCCC
DNA 2: TGGTGGCTACGACGGGATT
B6: AAGAUUA (DNA:RNA)
RNA: GGGAGACCGGAAUUCAGAUUGUCCAAGAUUAUUAAAUCCCGUCGUAGCCACCA
DNA 1: CAATCTGAATTCCGGTCTCCC
DNA 2: TGGTGGCTACGACGGGATT
B7: CGGCUCC (DNA:RNA)
RNA: B6 RNA with A25C, A26G, A28C, U30C, A31C
DNA 1: CAATCTGAATTCCGGTCTCCC
DNA 2: TGGTGGCTACGACGGGATT
B8: GAGCAGG (DNA:RNA)
RNA: B6 RNA with A25G, A28C, U29A, U30G, A31G
DNA 1: CAATCTGAATTCCGGTCTCCC
DNA 2: TGGTGGCTACGACGGGATT
B9: UACAUAA (DNA:RNA)
RNA: B6 RNA with A25U, G27C, U30A
DNA 1: CAATCTGAATTCCGGTCTCCC
DNA 2: TGGTGGCTACGACGGGATT
B10: ACCCAGU (DNA:RNA)
RNA: B1 RNA with U25A, A27C, U28C, C30G, C31U
DNA 1: CAATCTGAATTCCGGTCTCCC
DNA 2: TGGTGGCTACGACGGGATT
B11: UUUAGAU (DNA:RNA)
RNA: B6 RNA with A25U, A26U, G27U, U29G, U30A, A31U
DNA 1: CAATCTGAATTCCGGTCTCCC
DNA 2: TGGTGGCTACGACGGGATT
B12: UGUCUAC (DNA:RNA)
RNA: B1 RNA with C26G, A27U, U28C, A29U, C30A
DNA 1: CAATCTGAATTCCGGTCTCCC
DNA 2: TGGTGGCTACGACGGGATT
B13: GCGAGAG (DNA:RNA)
RNA: B6 RNA with A25G, A26C, U29G, U30A, A31G
DNA 1: CAATCTGAATTCCGGTCTCCC
DNA 2: TGGTGGCTACGACGGGATT
B14: CGGACCG (DNA:RNA)
RNA: B6 RNA with A25C, A26G, U29C, U30C, A31G
DNA 1: CAATCTGAATTCCGGTCTCCC
DNA 2: TGGTGGCTACGACGGGATT
B15: CCAAAAC (DNA:RNA)
RNA: B1 RNA with U25C, U28A, C30A
DNA 1: CAATCTGAATTCCGGTCTCCC
DNA 2: TGGTGGCTACGACGGGATT
B16: GGUUGGA (DNA:RNA)
RNA: B6 RNA with A25G, A26G, G27U, A28U, U29G, U30G
DNA 1: CAATCTGAATTCCGGTCTCCC
DNA 2: TGGTGGCTACGACGGGATT
B17: UCUCUAA (DNA:RNA)
RNA: B6 RNA with A25U, A26C, G27U, A28C, U30A
DNA 1: CAATCTGAATTCCGGTCTCCC
DNA 2: TGGTGGCTACGACGGGATT
B18: UGCUGCA (DNA:RNA)
RNA: B1 RNA with C26G, A27C, A29G, C31A
DNA 1: CAATCTGAATTCCGGTCTCCC
DNA 2: TGGTGGCTACGACGGGATT
B19: CCUGCGA (DNA:RNA)
RNA: B6 RNA with A25C, A26C, G27U, A28G, U29C, U30G
DNA 1: CAATCTGAATTCCGGTCTCCC
DNA 2: TGGTGGCTACGACGGGATT
B20: GCUUGUG (DNA:RNA)
RNA: B1 RNA with U25G, A27U, A29G, C30U, C31G
DNA 1: CAATCTGAATTCCGGTCTCCC
DNA 2: TGGTGGCTACGACGGGATT
B21: CCAGACA (DNA:RNA)
RNA: B1 RNA with U25C, U28G, C31A
DNA 1: CAATCTGAATTCCGGTCTCCC
DNA 2: TGGTGGCTACGACGGGATT
B22: UAAUUUU (DNA:RNA)
RNA: B6 RNA with A25U, G27A, A28U, A31U
DNA 1: CAATCTGAATTCCGGTCTCCC
DNA 2: TGGTGGCTACGACGGGATT
B23: GAUGUAA (DNA:RNA)
RNA: B6 RNA with A25G, G27U, A28G, U30A
DNA 1: CAATCTGAATTCCGGTCTCCC
DNA 2: TGGTGGCTACGACGGGATT
B24: CCCACCU (DNA:RNA)
RNA: B1 RNA with U25C, A27C, U28A, A29C, C31U
DNA 1: CAATCTGAATTCCGGTCTCCC
DNA 2: TGGTGGCTACGACGGGATT
B25: CAUUCUA (DNA:RNA)
RNA: B6 RNA with A25C, G27U, A28U, U29C
DNA 1: CAATCTGAATTCCGGTCTCCC
DNA 2: TGGTGGCTACGACGGGATT
B26: UAGGCCU (DNA:RNA)
RNA: B6 RNA with A25U, A28G, U29C, U30C, A31U
DNA 1: CAATCTGAATTCCGGTCTCCC
DNA 2: TGGTGGCTACGACGGGATT
B27: GUUAUCU (DNA:RNA)
RNA: B6 RNA with A25G, A26U, G27U, U30C, A31U
DNA 1: CAATCTGAATTCCGGTCTCCC
DNA 2: TGGTGGCTACGACGGGATT
B28: AACCAAC (DNA:RNA)
RNA: B6 RNA with G27C, A28C, U29A, U30A, A31C
DNA 1: CAATCTGAATTCCGGTCTCCC
DNA 2: TGGTGGCTACGACGGGATT
B29: CAACACC (DNA:RNA)
RNA: B1 RNA with U25C, C26A, U28C
DNA 1: CAATCTGAATTCCGGTCTCCC
DNA 2: TGGTGGCTACGACGGGATT
B30: GGAGUAG (DNA:RNA)
RNA: B6 RNA with A25G, A26G, G27A, A28G, U30A, A31G
DNA 1: CAATCTGAATTCCGGTCTCCC
DNA 2: TGGTGGCTACGACGGGATT
B31: GUGAAGU (DNA:RNA)
RNA: B6 RNA with A25G, A26U, U29A, U30G, A31U
DNA 1: CAATCTGAATTCCGGTCTCCC
DNA 2: TGGTGGCTACGACGGGATT

In the experiment the target is T1, RBFOX1 RRM RbFoxmut (Fox-RRM*). As to the kind of experiment: EMSA; HiTS-Eq, 1 nM pool, 10 min; buffer printed only for the single-RNA assays: 10 mM Tris pH 7.5, 150 mM NaCl, 3.4 mM EDTA, 0.001% NP-40, 30 C. Particulars: tags: His6 N-terminal (pET28a); label: 5' 32P. The procedure, abridged: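 Purified RbFox RRM, wild type or mutant, was incubated for 10 min in 50 µL with 1 nM of a 5′-radiolabelled RNA pool carrying 7 randomized nucleotides, whose flanks were annealed to DNA oligonucleotides, over a series of increasing protein concentrations. Unbound RNA was resolved on 8% native PAGE, cut out, reverse-transcribed, barcoded by PCR and sequenced on an Illumina HiSeq 2500. Relative association constants were derived from changes in read counts for each RNA species versus the control reaction and normalised to the cognate motif.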
As for B1, the binding signal was 0.0704 KA relative to UGCAUGU. On to B2, for which the binding signal is 0.121 KA relative to UGCAUGU. Turning to B3, the binding signal was 0.0695 KA relative to UGCAUGU. Consider B4, for which the binding signal was 0.036 KA relative to UGCAUGU. Take B5: the binding signal is 0.124 KA relative to UGCAUGU. B6: the binding signal was 0.125 KA relative to UGCAUGU.

For the molecule B7, the binding signal was 0.08 KA relative to UGCAUGU. With B8 the figure was 0.0837 KA relative to UGCAUGU; with B9, 0.0965 KA relative to UGCAUGU. Consider B10, for which the binding signal was 0.0826 KA relative to UGCAUGU. In the case of B11, the binding signal is 0.0764 KA relative to UGCAUGU. Turning to B12, the binding signal is 0.0803 KA relative to UGCAUGU. Regarding B13, the binding signal was 0.116 KA relative to UGCAUGU.

Take B14: the binding signal was 0.172 KA relative to UGCAUGU. With B15, the binding signal was 0.0482 KA relative to UGCAUGU. Turning to B16, the binding signal was 0.0627 KA relative to UGCAUGU. Regarding B17, the binding signal is 0.104 KA relative to UGCAUGU. With B18 the figure was 0.251 KA relative to UGCAUGU. As for B19, the binding signal is 0.0932 KA relative to UGCAUGU.

As to B20, the binding signal is 0.259 KA relative to UGCAUGU. With B21 the figure was 0.087 KA relative to UGCAUGU.

For B22, the binding signal was 0.0746 KA relative to UGCAUGU. B23: the binding signal is 0.0917 KA relative to UGCAUGU.

In the case of B24, the binding signal is 0.0699 KA relative to UGCAUGU. B25: the binding signal was 0.129 KA relative to UGCAUGU. With B26 the figure was 0.0852 KA relative to UGCAUGU. Take B27: the binding signal is 0.113 KA relative to UGCAUGU. Consider B28, for which the binding signal was 0.0799 KA relative to UGCAUGU.

Consider B29, for which the binding signal is 0.071 KA relative to UGCAUGU.

For the molecule B30, the binding signal is 0.0998 KA relative to UGCAUGU. Consider B31, for which the binding signal was 0.139 KA relative to UGCAUGU.
